The list shows a part of the results.

This assay relates to PF3D7_0420300 AP2 domain 1 (GST-tagged). Kind of assay: gcPBM binding intensity (ln(normalized median fluorescence intensity)); higher = stronger DNA binding. The procedure, abridged: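 The binding buffer was 1× PBS containing 1% milk, 0.2 mg/ml BSA, 0.5% salmon testes DNA and 0.03% Triton X-100. In it, GST-tagged P. falciparum DNA-binding domains expressed in E. coli were applied for 1 h to an Agilent 4 × 180k array of primer-extended double-stranded 36-bp intergenic genomic probes plus negative controls. Binding intensity, read with Alexa488 anti-GST antibody and a 488 nm scan, is the highest Masliner-normalised natural-log median intensity across replicate spots of either probe orientation.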
As for “TAGTTAATATGAAAAAGTACACGTTTCAGTGAAAGT [XGTACX_site7402]”, the “gcPBM binding intensity (ln)” value came out at 9.46. Consider “ATTTAATACATACATTCACACACACTAATTGTATAT [CACACA_site9361]”, for which the “gcPBM binding intensity (ln)” value worked out at 9.99.

Regarding “AAAAAAAAAAAAACTTGTACATGTGATATTATCTAT [XGTACX_site6169]”, the “gcPBM binding intensity (ln)” value was found to be 9.24.

For the sequence “TTAAATGTTCTATATACATGCAATGATATGTTTCTG [TGCATGCA_site317]”, the “gcPBM binding intensity (ln)” value was 9.11. For “TCAAAGTAGGCTTATATGCACACTTTGAAATATTAT [CACACA_site1920]” the value was 9.11; for “GATAATACATAAATTTATAAGTGGAAGAATAAATAA [CACACA_negctrl_site698]”, 9.32; for “GAAATATTACAAAGTACATGCAACGAAAATTTCAGT [TGCATGCA_site608]”, 9.4.

On to “ACAAACAAATAAATATGTACGAATAAATAAAATTTT [XGTACX_site4664]”, for which the “gcPBM binding intensity (ln)” value is 9.54. Take CTTTTAGAATAATCAGTGCAAAAAAAAAAAAAAAAA: the “gcPBM binding intensity (ln)” value was 8.53.

As for “TTTTTTTTCAAAAATACAAAAAAAAAAGAAAAAAAC [CACACA_negctrl_site625]”, the “gcPBM binding intensity (ln)” value is 9.22.

As to “TGCTCTAATTTATATACACACAAATATGTACACATA [CACACA_site7845]”, the “gcPBM binding intensity (ln)” value was found to be 9.56. Regarding “TTTCATAAATAATAAAATAAAATATGAAGCAAAAGG [CACACA_negctrl_site1767]”, the “gcPBM binding intensity (ln)” value amounted to 9.39.

As for “TAATTTTTTTAAGAGAGTACATGACTCAACAGTTTA [XGTACX_site3103]”, the “gcPBM binding intensity (ln)” value is 8.76. For “TTTTTTTTTTTTTGGAGTACATGTTTATAACATAAT [XGTACX_site1799]” the value was 8.98; for “TTATATCCAACTTGAAAAAAGGTATATGTTTATATA [CACACA_negctrl_site1746]”, 8.99; for “TACACCCACATATATATACACACTTTTATTTAAATA [CACACA_site1596]”, 9.61. For “AATATATATATATGTGCACACATATATAATATGTAT [CACACA_site716]” the value was 9.62. For “AAAAAAAATAATGTTGCACACAACAACAAACAAAAA [CACACA_site3290]” the value was 9.51. Regarding “CAATATGGAAAATAAAGTACGCACACAAAAATTCTC [XGTACX_site4793]”, the “gcPBM binding intensity (ln)” value was 9.63. For “TAGATAAAATGAACATGTACTCATCTTAATATATAT [XGTACX_site34]” the value was 9.21; for “ATGTGTTTCTTCAATTGTACTAAAAGGTATATATTG [XGTACX_site4608]”, 9.45. Regarding “TTATTCTAAAAATATACACACAACAACAAACAAACA [CACACA_site1543]”, the “gcPBM binding intensity (ln)” value was found to be 9.92.

Regarding “TATATAATATATAAATGTACTTTTGTCTTATATGAA [XGTACX_site7211]”, the “gcPBM binding intensity (ln)” value was 8.93. Regarding “TAGTAACTTGTATTCACACAAATTATATTATATTAC [CACACA_site5041]”, the “gcPBM binding intensity (ln)” value was determined as 9.24. “ATACTATAATATAAAACACACATATGTACCTTCTAA [CACACA_site7323]”: the “gcPBM binding intensity (ln)” value was determined as 9.54.

Turning to “ATTATTTAAATTTAACGTACGGAATAAGACATAGAT [XGTACX_site8622]”, the “gcPBM binding intensity (ln)” value is 9.6. Consider “TTCAGGTAATAACATTGTACATGTGTATCATAATTA [XGTACX_site6740]”, for which the “gcPBM binding intensity (ln)” value turned out to be 9.24. Regarding “AATCATTAAAGCATAATGTTTATGATCAATATGAAA [CACACA_negctrl_site887]”, the “gcPBM binding intensity (ln)” value is 9.01. For “TTTTTTTTTTTTTTTTTTTTACAGAAAAATATTAAA [CACACA_negctrl_site128]” the value was 8.38; for “ATAAAAAAAAAAAATACACACATATATTTATTTATA [CACACA_site6903]”, 9.37; for “TTTATATGGATTTTTTTTTAATATTTCTTTTAATTT [TGCATGCA_negctrl_site361]”, 9.15. For the sequence “TAAAAAAAAAAAAAAAGTACAAAAAAAATATTTTTT [XGTACX_site7941]”, the “gcPBM binding intensity (ln)” value was found to be 9.13. For “ATATGCTATTTACTAGTGCAAAATATTTAAAATATG [GTGCAC_site9517]” the value was 9.06.

Turning to “TTAATATAAGCAAATACACACACACCGATATATATA [CACACA_site9269]”, the “gcPBM binding intensity (ln)” value was found to be 10.2. As for “GTTGCACAATGTTACACACACAATATAGATCGTTAA [CACACA_site6717]”, the “gcPBM binding intensity (ln)” value worked out at 9.76. For “GGCATGACTATCTGCACACATAAAAATAAGAAATAC [CACACA_site841]” the value was 9.56; for “GATTTATACAAATATGTACACACTAATTATATATTA [CACACA_site8045]”, 9.47; for “ATAAACAGAAAAAAAAAAAAAAAAAAAAAAAAAAAA [CACACA_negctrl_site143]”, 8.62. On to “TTTTTTTTCTCACAAAAAATAATTAACAAAAAGGAA [XGTACX_negctrl_site154]”, for which the “gcPBM binding intensity (ln)” value is 8.68. For “CAATGTTAACATATTACACACATATGTATATATAAT [CACACA_site8878]” the value was 9.62; for “GACAACTCTTTTCATACACACAAAAAAAAAAAAATA [CACACA_site2361]”, 9.4; for “TCACATATATATTAATGTACATATATTTTTTATGTA [XGTACX_site5125]”, 9.25. For “GATATATCCTATGTTATTTTTATGGTGTAATTTAGT [XGTACX_negctrl_site112]” the value was 9.69; for “TTTTTTTTATGTATCACACATAATTTTTTATTATGA [CACACA_site5534]”, 9.05; for “AGAAAGAAAATATATACACACAAAAAAAAATATATA [CACACA_site1412]”, 9.93. As for “CATCCACAAATATGTACACACATATATAAATATGTA [CACACA_site7407]”, the “gcPBM binding intensity (ln)” value stood at 9.48. For “ATAATAACAAGGCGCTGTACTGTACCGTTTTTCATA [XGTACX_site6135]” the value was 9.37; for “TATCATATTTTTATATGTACATAACATAAAAAAAAA [XGTACX_site2152]”, 8.89. In the case of “AACAGACAAAGACACACACACATACATACATACATA [CACACA_site6351]”, the “gcPBM binding intensity (ln)” value came to 9.88. Turning to “TGATTTGTGCCGATTTGTACACATTTATATATATAT [XGTACX_site2154]”, the “gcPBM binding intensity (ln)” value came out at 9.54.

Consider “TACATACATACATACACACACATATATATATATATA [CACACA_site1944]”, for which the “gcPBM binding intensity (ln)” value came out at 9.63. In the case of “ATTTTTTCATATTCTACACACGTGAACAAATGAGTC [CACACA_site5635]”, the “gcPBM binding intensity (ln)” value worked out at 9.35. For “TTCTTTTTAAATTACACACACATATATATCTGTATA [CACACA_site5863]” the value was 9.89. With “ATGAACATACAATATACACACATATAGATTTATATT [CACACA_site6524]”, the “gcPBM binding intensity (ln)” value was found to be 9.73. With “TCATTATTAATATGTAGTACATTATATGATATGTAT [XGTACX_site8978]”, the “gcPBM binding intensity (ln)” value was 9.29. For “TAAAGGATTTTCGAAGCATGCCACCTGTGACATACT [TGCATGCA_site130]” the value was 9.02.

The values are drawn from the supplement of paper PMC11417369.
